PubChem BioAssay AID179 (DTP/NCI, 2004)
A number of entries come with more than one value. This list holds those alone.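 The calls were made as follows: active = compounds giving half or more protection of infected cells from virus-caused growth loss, again on retest; inactive = the rest.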 The source may hold further records. The records of an entry are repeated measurements (runs, samples, wells, individuals or studies). A tag in brackets gives the origin of a value. The letters are not those of the source and start again with each entry. Where a SMILES comes first, the peptide text is derived from it. The star is where a group is joined. Boc = CC(C)(C)OC(=O)*

Tested on: CEM cells HIV-1 protection, formazan growth assay
Assay: NCI AIDS Antiviral Assay
Details: for IC50: measured here: growth of uninfected CEM cells
In short: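 Protection of CEM cells against HIV-1 measured as cell growth via soluble formazan read-out, with five concentrations tested on both infected and uninfected cells; failure to protect may reflect toxicity.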

| SMILES | IC50 | EC50 | other results |
| --- | --- | --- | --- |
| Cc1nc(N)nc(N)c1-c1ccc(Cl)c(Cl)c1 | 79.4 nM [sample A] and 1.2 µM [sample B] | – | – |
| COc1ccc(-c2nc(SC3OC(COC(C)=O)C(OC(C)=O)C(OC(C)=O)C3OC(C)=O)n(C3OC(COC(C)=O)C(OC(C)=O)C(OC(C)=O)C3OC(C)=O)c(=O)c2C#N)cc1 (stereo not given) | – | > 100 µM [sample A] and 9.55 µM [sample B] | – |
| CCOC(=O)/C=C/SCCCC(=O)O | – | > 1.15 mM [sample A] and 85.1 µM [sample B] | – |
| COC(=O)C(C)NC(=O)C(CCSC)NC(=O)C(Cc1ccccc1)NC(=O)OC(C)(C)C (stereo not drawn) (Boc-Phe-Met-Ala-OMe; configuration not given here) | 9.77 µM [sample A] and > 200 µM [sample B] | – | – |
| CN(C)CC1CCCC(CN2CCCCC2)C1=O (stereo not given) | – | – | outcome: active [sample A] and inactive [sample B] |
